# Test results published in ChEMBL document CHEMBL4888484, “Replenishing the malaria drug discovery pipeline: Screening and hit evaluation of the MMV Hit Generation Library 1 (HGL1) against asexual blood stage Plasmodium falciparum ,using a nano luciferase reporter read-out” (2022).
# The whole screen tested about 4,800 compounds, of which about 420 (8.8%) showed an effect of 50% or more. Some of the results follow.
# Tested on: Plasmodium falciparum
# Experiment: Confirmatory screen in NF54 nanoGlo assay, in single point, at 2uM, 72h
# Type: functional, Erythrocyte
# Conditions: timepoint 72 hour
row,Compound,% Inhibition [%]
1,O=C(COC[C@H]1CCCO1)Nc1ccc2[nH]c(=O)sc2c1,-2
2,CCC[C@H](C)CS(=O)(=O)NCc1ccnc(OC(C)C)c1,-11
3,C[C@H](NC(=O)c1nnn(C)c1C(F)(F)F)c1cscn1,7
4,Cc1c(NC(=O)c2n[nH]cc2Cl)c(=O)n(-c2ccccc2)n1C,-13
5,COc1cc(C)cc(C)c1S(=O)(=O)N(C)Cc1nnc[nH]1,4
6,CCOc1ccc(NC(=O)c2cnc(N(Cc3ccccc3)C(C)C)nc2N)cc1,-15
7,COC(OC)c1ccnc2c(C#N)cnn12,-3
8,CC1CC(NC(=O)NC2CS(=O)(=O)c3ccccc32)C(=O)N1c1ccccc1 (configuration not stated),-1
9,CCO[C@H]1OCCn2c1c(Br)c(=O)n(C)c2=O,2
10,O=C(c1cccc(C(=O)N2CCN(C(c3ccccc3)c3ccccc3)CC2)c1)N1CCN(C(c2ccccc2)c2ccccc2)CC1,63
11,Cc1ccc(N2CCN(c3c(C(=O)N4CCCCC4)cnc4ccc(F)cc34)CC2)cc1,-8
12,CCCc1ccc(Cl)c(S(=O)(=O)Nc2nnc(C3CC3)o2)c1,2
13,CN1CN(C(=O)c2cc(C#N)cn2C)CC1=O,-10
14,CCCOc1ccc(Nc2cc(C)nc3ccc(Cl)cc23)cc1,42
15,CC(C)C(=O)Nc1ccc(-c2cc(-c3ccc(NC(=O)C(C)C)cc3)nc(-c3ccncc3)n2)cc1,56
16,O=c1[nH]c2nc(N3CCN(c4ncccn4)CC3)ncc2c(=O)n1Cc1ccco1,-21
17,Cc1cc(C)cc(-c2cc3nc(C)cc(N4CCC(C(=O)NCc5cccc(F)c5)CC4)n3n2)c1,79
18,COC(=O)[C@@H](NC(=O)NC1CCCCC1)C(C)(C)C,-2
19,O=C(N[C@H]1CC12CC2)c1ccncc1F,-13
20,CC(C)(C)C(=O)NCCNC(=O)c1ccccn1,8
21,Cc1c(N2CCC(C(=O)NCCN3CCOCC3)CC2)c(=O)n(CC(C)C)c(=O)n1-c1ccccc1,-6
22,CC[C@H](C)NC(=O)c1cn(-c2cccc(C)n2)cn1,1
23,CCCn1ccnc1-c1cn(Cc2cc3ccccc3[nH]2)nn1,39
24,O=C(CN1CCCC1)Nc1ccc(N2CCn3c(nc4ccccc43)C2)cc1,6
25,CC(=O)Nc1cccc(C#CCN2CCN(c3ccc(F)cc3)CC2)c1,-5
26,CCOc1ccc(-c2ccnc3c(C(=O)NCCc4c[nH]c5ccc(OC)cc45)cnn23)cc1,-2

row,Compound,% Inhibition [%]
1,CC(=O)N(Cc1ccccc1)c1ccc2c(c1)nc(Cn1nc(C)cc1C)n2C,2
2,COc1ccc(CCNC(=O)c2cc3c(=O)[nH]c(C)cn3n2)cc1OC,67
3,COc1ccc(C)cc1NC(=O)N1CC[C@@]2(C1)Nc1cccnc1N=C2NC1CCCC1,-5
4,Nc1ccnc(OCc2ccccc2)n1,-14
5,COCCS(=O)(=O)Nc1ccc(Br)c(C)n1,-5
6,Cc1ccc(N2C(=O)NC3c4ccccc4OC2(C)C3C(=O)Nc2ccc(Cl)cc2)cc1Cl (configuration not stated),-13
7,CC1(C(=O)N[C@H]2CCO[C@H](c3ccccn3)C2)CC1F (some centres not stated),3
8,CCCc1nc(N2CCCN(C(=O)C3CCCCC3)CC2)c2c(C)nn(-c3ccccc3)c2n1,0
9,O=S(=O)(Cc1ccccc1)N1CCC2(CCCCC2)C1,0
10,CC(C)N(C)c1ccc(NC(=O)C2=NN(C)C(=O)CC2)cc1F,1
11,CCOc1ccccc1NC(=O)Cc1c(C)nc2nc(-c3cccnc3)nn2c1C,0
12,O=C(Nc1nc(CCc2c[nH]c3ccccc23)n[nH]1)c1cccnc1,10
13,Cc1nn(-c2ncccn2)c2c1[C@@H](c1ccccc1)CC(=O)N2,-16
14,Cc1nn(-c2nc3ccccc3[nH]2)c2c1[C@@H](c1cccnc1)CC(=O)N2,79
15,Cc1cc2c(cc1C)O[C@H](C(=O)Nc1nnn[nH]1)C2,-14
16,Cc1ccc(-c2ccnc3c(C(=O)N4CCOCC4)cnn23)cc1C,-3
17,CC(C)c1cc(NS(=O)(=O)c2ccc3c(c2)OCCCO3)[nH]n1,-12
18,O=c1[nH]c(=O)n(Cc2nc(-c3ccco3)no2)cc1Cl,0
19,Clc1ccc(Cn2cc(CNCCCn3ccnc3)c3ccccc32)c(Cl)c1,98
20,O=C(c1ccccc1)C1C(c2ccccc2)N1C(=O)c1ccc(Cl)cc1Cl (configuration not stated),-3
21,Cc1cccc(C2(c3cccc(C)c3)c3ccccc3/C(=N\c3ccccc3)N2c2ccccc2)c1,4
22,O=C(N[C@H]1CC[C@@H]2CCC[C@@H]21)c1c[nH]c(=O)c(Cl)c1,43
23,Clc1ccc(OCc2ccc(-c3nc4c5cn[nH]c5ncn4n3)cc2)c(Cl)c1,-6
24,Fc1ccc(-c2cc3c(N4CCCCC4)nccn3n2)cc1,0
25,C[C@@H](NC(=O)Nc1ccc(Cl)c(Cl)c1)C(=O)O,5
26,O=C(c1ccoc1-c1ccccc1O)N1CCOCC1,1

row,Compound,% Inhibition [%]
1,NC(=O)CN1CCCN(C(=O)c2cnc3ccccc3n2)CC1,4
2,CCOc1cccc(Cn2c(=O)c3sccc3n(CC(=O)Nc3ccccc3)c2=O)c1,9
3,Cc1noc2ncc(C(=O)N3C[C@H](C)OC(C)(C)C3)cc12,9
4,Cc1ccc(N2CCCN(Cc3ccc(C(C)C)cc3)C2=O)c(NC(=O)c2ccco2)c1,8
5,COc1ccc(CCc2nc(NC(=O)c3[nH]nc4c3CCC4)n[nH]2)cc1,-1
6,Nc1c(-c2ccccc2)nsc1C(=O)NCC1CC1,0
7,CCCn1nccc1C(=O)NCCCn1ncc2c(C)cccc21,-2
8,c1ccc(-n2ncnc2[C@@H]2COCCN2)cc1,0
9,O=C1C2C3CCCCN3C3(C(=O)N(Cc4ccc(F)cc4)c4ccccc43)C2C(=O)N1c1ccccc1 (configuration not stated),-1
10,C[C@H]1CCc2c(cnc3c(C(=O)NCc4ccccc4)cnn23)C1,-6
11,CCn1ncc(NC(=O)c2cc(-c3ccccc3)on2)c1C,-15
12,O=C(NC[C@H]1CCCO1)N1CCN(c2nccs2)C(=O)C1,1
13,O=C(Cn1nnc2ccccc21)N(Cc1ccccc1)C1(C(=O)Nc2ccc3c(c2)OCO3)CCCCC1,23
14,Cc1ccc(C(=O)N2CC(C)CC(C)C2)cc1NCc1ncc[nH]1 (configuration not stated),8
15,Cc1cccc2ncnc(N(C)[C@@H](C)Cc3ccc(O)cc3)c12,79
16,Nc1n[nH]c2c(Cl)c3nnc(-c4ccccc4)n3c(Cl)c12,8
17,O=C(NCc1ccoc1)NCC1(c2ccccc2)CC1,-12
18,Cc1nn(C)c(NC(=O)Nc2cccc(Cl)c2)c1C1=CCCCC1,-5
19,O=C(Nc1ccc(N2CCCC2)c(F)c1)C(=O)Nc1ccon1,-17
20,CNC(=O)c1ccc(N(C)Cc2ccc(O)cc2)nn1,0
21,Fc1ccc(-c2cc3c(N4CCCCCC4)nccn3n2)cc1,4
22,O=C(CCCC(=O)C1CC1)NC[C@H]1CCCOC1,-8
23,CN(C)c1ccc(NC(=O)C2(N(Cc3ccccc3)C(=O)Cn3nnc4ccccc43)CCCCC2)cc1,26
24,CC(C)Cc1nsc(N2CCOC3CCN(C)CC32)n1 (configuration not stated),-1
25,CCn1ncc(-c2cc(C(F)(F)F)c3c(C(C)C)nn(-c4ccc(F)cc4)c3n2)c1C,-8
26,O=C(O)C1CCC(=O)N(C2CC2)C1c1ccccc1 (configuration not stated),3

row,Compound,% Inhibition [%]
1,COc1cccc(CNC(=O)Cn2c(=O)n(C)c(=O)c3c2c(-c2ccccc2)cn3C)c1OC,-5
2,COc1ccc(OC)c(CCNC(=O)Cn2ccc3cc(S(=O)(=O)N4CCCC4)ccc32)c1,7
3,CCc1ccccc1NC(=O)Cn1cnc2nc(N(C)Cc3ccccc3)sc2c1=O,-16
4,CC(C)C1(CNC(=O)C(=O)c2cc(S(N)(=O)=O)cn2C)CC1,-3
5,C[C@H]1CCc2c(cnc3c(C(=O)NC4CC4)cnn23)C1,-8
6,CC(=O)c1cccc(NC(=O)c2nonc2C)c1,-11
7,CCCn1nc(-n2cnnc2)c(NS(=O)(=O)c2ccc(OC)c(OC)c2)c1C,0
8,COc1ncnc(OC)c1C(=O)N1CCC[C@H]1C=Cc1ccccc1,-12
9,Cc1ccc(C(=O)OCC(=O)Nc2ccc3c(c2)OCO3)cn1,-2
10,CCCn1c(C)nnc1COC(=O)c1ncoc1C,-5
11,CS(=O)(=O)[C@H]1CCCN(c2nc3cc(F)ccc3o2)C1,-10
12,Cn1cc(CCNC(=O)C2=NN(c3ccccc3)[C@H](C(N)=O)C2)cn1,-5
13,CCc1ccc(NCc2c(OCc3ccc(Br)cc3)ccc3ccccc23)cc1,-11
14,O=C1NC2=Nc3ccccc3NC(c3ccccc3)=C2[C@H](c2cccc3ncccc23)N1,19
15,O=C1C[C@@H](c2cccc(Br)c2)c2c(O)nc(N3CCOCC3)nc2N1,-9
16,Cc1nn(C)cc1[C@H](C)NC(=O)c1cc(-c2ccccc2)on1,0
17,O=C(NC1CCN(Cc2ccccc2)CC1)c1cnn2c(-c3ccc4c(c3)OCO4)ccnc12,3
18,Cc1ccc(S(=O)(=O)N2CCN(C(=O)N3CCOCC3)[C@@H]2C)cc1,-8
19,CC(=O)N1CCN(C(=O)CC2CC3CCC2C3)CC1 (configuration not stated),-15
20,COc1ccccc1-n1c(=O)[nH]c2nc(N3CCN(c4ccccn4)CC3)ncc2c1=O,-6
21,Cc1ccc(NCc2ncccn2)cc1OCC1CCCCC1,1
22,Cn1c(CCNC(=O)CCc2cccnc2)nc2cc(Cl)ccc21,-3
23,Cc1ccc(S(=O)(=O)Nc2cc3nc4ccccc4nc3n2CCc2ccccc2)cc1,100
24,Cn1c(-c2ccccc2)cn2cc(-c3ccc(F)cc3)nc12,1
